Publication PMC4102803
Substitutions are numbered along the chain they refer to. These are yes or no findings as the source states them, for the method shown. Binding seen in cells or lysates may run through a third protein. Some results given as binding are weak or reduced against the parent protein; the word gives no strength. Sequences can lack the tags named with a protein.

Amino acid sequences for entries named in this document (tags omitted). A change or cut given only in a name is not applied to a line headed by its entry.
UniProt Q9UJU6: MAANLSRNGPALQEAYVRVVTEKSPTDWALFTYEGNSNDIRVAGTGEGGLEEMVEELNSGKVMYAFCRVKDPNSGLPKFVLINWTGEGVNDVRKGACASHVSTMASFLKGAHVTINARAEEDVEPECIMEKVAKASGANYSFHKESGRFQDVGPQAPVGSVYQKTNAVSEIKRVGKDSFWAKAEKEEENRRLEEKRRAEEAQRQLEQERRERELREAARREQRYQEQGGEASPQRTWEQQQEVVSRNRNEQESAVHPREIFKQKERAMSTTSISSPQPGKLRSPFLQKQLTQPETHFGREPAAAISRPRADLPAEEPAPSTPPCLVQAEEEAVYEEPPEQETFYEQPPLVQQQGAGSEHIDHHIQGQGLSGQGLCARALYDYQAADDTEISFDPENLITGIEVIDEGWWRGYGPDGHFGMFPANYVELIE

Columns and labels:
[1] = biological target: T1, hexa-histidine-14-3-3γ/K50E (UniProt P61981); test: pull-down; His pull-down: HEK293 cells co-transfected with His-14-3-3 and HIP-55, lysed after 48 h (1% NP-40, 137 mM NaCl, 60 mM imidazole, phosphatase inhibitors); nickel-charged resin 2 h at 4°C; washes with 500 mM NaCl; Western blot; in Figure 1C lysates with or without phosphatase inhibitors and in Figure 1D with or without Calyculin A for 0.5 h at room temperature
T1 sequence: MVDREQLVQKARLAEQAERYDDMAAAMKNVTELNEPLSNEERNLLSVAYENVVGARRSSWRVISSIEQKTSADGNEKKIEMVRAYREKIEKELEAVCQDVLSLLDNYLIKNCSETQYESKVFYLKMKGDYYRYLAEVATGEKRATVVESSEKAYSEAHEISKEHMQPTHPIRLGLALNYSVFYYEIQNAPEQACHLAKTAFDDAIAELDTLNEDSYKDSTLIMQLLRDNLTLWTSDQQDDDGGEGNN

His-14-3-3τ [2] = biological target: T2, His-14-3-3τ (UniProt P27348); test: as above
T2 sequence: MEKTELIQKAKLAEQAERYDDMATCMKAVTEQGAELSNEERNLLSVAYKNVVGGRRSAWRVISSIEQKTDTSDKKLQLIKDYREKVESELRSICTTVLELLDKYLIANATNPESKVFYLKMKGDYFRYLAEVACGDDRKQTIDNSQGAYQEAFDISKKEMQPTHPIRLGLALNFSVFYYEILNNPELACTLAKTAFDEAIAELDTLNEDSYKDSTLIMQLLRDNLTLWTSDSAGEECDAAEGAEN

hexa-histidine-14-3-3γ = biological target: T3, hexa-histidine-14-3-3γ (UniProt P61981); test: as above
T3 sequence: T1 sequence with E50K

His-14-3-3τ [3] = biological target: T2, His-14-3-3τ; test: pull-down; R18 competition: HEK293 cells co-transfected with HIP-55 and 14-3-3τ, harvested after 36 h and incubated 30 min at 4°C with DMSO alone or R18; His pull-down; Western blot

Substance | binding [1] | binding (His-14-3-3τ [2]) | binding (hexa-histidine-14-3-3γ) | binding (His-14-3-3τ [3])
GST-HIP-55 wild type (from UniProt Q9UJU6 1-430) | no binding | binds | binds | binds
HIP-55/S269A/T291A (AA) (from UniProt Q9UJU6 1-430) |  | no binding |  | 
HIP-55/S269D/T291D (DD) (from UniProt Q9UJU6 1-430) |  | no binding |  | 
